Test results from PubChem BioAssay AID652104 (National Center for Advancing Translational Sciences (NCATS), 2013).
“And” between values parts separate entries of the source, which are not always exact repeats. Equal values may be shown once. Screen size: about 410,000 compounds; about 7,200 (1.8%) were called active. This list was built around the results that the source calls inconclusive (neither active nor inactive); the mix of calls is not that of the screen. Calls follow the shape of the dose curve; as a rule, active = well fitted activation curve with a large enough effect; inconclusive = small, poorly fitted or top-dose-only effect, or another doubt; inactive = no such curve, though single readings can be large or run the other way. No potency is given beside an inconclusive call; the fits are too rough. Some structures have more than one record in an assay (separate samples or runs), and their calls can disagree.
Potency is read from the fitted curve at half-maximal effect; tags tell the direction and shape of the fitted curve.

Experiment: qHTS of TDP-43 Inhibitors; also: nearly all actives have a fitted effect of over 50% in size; as to growth rescue (activation): % of control where 0% means no effect
Settings: TDP-43 expressing yeast growth rescue, BacTiter-Glo, 24 h; growth rescue (activation): at 46.1 µM (top of the series) unless noted
In short: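 Growth rescue of TDP-43-toxic yeast measured as ATP luminescence (BacTiter-Glo). Cells grown to mid-log in raffinose, induced in galactose at OD600=0.02, exposed to compound 24 hr at 30 deg C.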
With `COc1ccc(NC(=O)CC2C(=O)N(C)C(=S)N2CCc2ccccc2F)cc1` (stereo not given) the Potency was inconclusive [activator, partial curve].
With `Cc1oc(-c2ccccc2Cl)nc1CSCC(=O)O` the Potency was inconclusive [activator, partial curve, poor fit].
For `COc1ccc(C2=Nc3ccccc3N(C(=O)c3ccc4c(c3)OCO4)C2C(=O)Nc2c(C)cccc2C)cc1` (stereo not given), the Potency was inconclusive [activator, partial curve].
For `Cc1cccc2cc(C3CC(c4cccs4)=NN3S(C)(=O)=O)c(Cl)nc12` (stereo not given), the Potency was inconclusive [activator, partial curve].
For `COc1cccc(-c2cc(C(=O)N3CCN(c4ncccn4)CC3)c3ccccc3n2)c1`, the Potency was active: 17.8 µM.
For `CCC1CSC(Nc2ccc(C(=O)/C=C/c3cccc(C)c3)cc2)=N1` (stereo not given), the Potency was inconclusive [activator, partial curve].
With `CC(C)(CCC(=S)N1CCOCC1)c1ccccc1` the Potency was inconclusive [activator, single point].
With `COc1ccccc1Nc1nc(NCC(C)C)nc(N)c1[N+](=O)[O-]` the Potency was inconclusive [activator, single point].
For `CC(C)C(=O)NC(c1cccs1)c1cc([N+](=O)[O-])c2cccnc2c1O` (stereo not given), the Potency was inconclusive [activator, single point].
In the case of `O=C(Cc1ccccc1)c1ccc(O)cc1O`, the Potency is reported as inconclusive [activator, single point].
In the case of `Oc1c(Cl)cc(Cl)cc1/C=N/Nc1ncc(Br)cn1`, the Potency is reported as “inactive”.
With `CCOc1ccc(N=C/C=C/c2ccccc2)c(O)c1` the Potency was inconclusive [activator, single point].
With `CC1(Cc2cccc(C(F)(F)F)c2)C(=O)Nc2c(Cl)cccc21` (stereo not given) the Potency was “inactive”.
In the case of `Clc1ccc(OCc2nc(-c3ccccn3)n[nH]2)cc1`, the Potency is reported as inconclusive [activator, single point].
For `O=C(NCCCN1CCCCC1)c1ccc2c(c1)sc1nc(-c3ccc(F)cc3)cn12`, the Potency was inconclusive [activator, partial curve].
In the case of `CCOC(=O)c1sc(-c2ccccc2)cc1N`, the Potency is reported as active: 7.08 µM.
With `Oc1ccc(Cc2ccccc2Cl)c(O)c1` the Potency was active: 12.6 µM.
With `O=C(CNc1ccccc1)Nc1cccc2ccccc12` the Potency was inconclusive [activator, partial curve].
In the case of `Cc1ccc(NC(=O)CCCN2C(=O)COc3ccc(C)cc32)c(C)c1`, the Potency is reported as inconclusive [activator, partial curve].
With `O=C(/C(=C/c1ccccc1Cl)c1ccccc1)N1CCOCC1` the Potency was inconclusive [activator, full curve, poor fit].
With `CCc1cccc(C)c1NC(=O)c1nc2ccccc2nc1N1CCCCC1` the Potency was inconclusive [activator, full curve, poor fit].
With `O=S(=O)(Nc1ccc(OC(F)(F)F)cc1)c1cccc2nonc12` the Potency was active: 11.2 µM.
With `N#C/C(=C\c1ccc(Cl)cc1)c1nc2ncccc2[nH]1` the Potency was “inactive”.
With `O=C1c2cccc3cccc(c23)N1Cc1cccc(F)c1` the Potency was inconclusive [activator, single point].
With `CC(C)(C)OC(=O)N1CCC(c2cc(-c3cccs3)n[nH]2)CC1` the Potency was inconclusive [activator, single point].
With `O=C(NCC1CCN(Cc2ccccc2F)CC1)Nc1cccc(Br)c1` the growth rescue (activation) was inconclusive: 37.8% [activator].
With `O=C(c1cccs1)N1CCN=C1SCc1ccc(F)cc1` the Potency was inconclusive [activator, partial curve].
In the case of `CC1=Nc2cc(C(=O)NCc3ccco3)ccc2Sc2ccc(C)cc21`, the Potency is reported as inconclusive [activator, single point].
With `Fc1ccc(Cc2cn3cc(-c4ccc(F)cc4)nc3s2)cc1` the Potency was inconclusive [activator, single point].
For `CC(=O)Nc1cccc(-c2cc(NC(C)=O)c3ncc(-c4ccccc4)n3c2)c1`, the Potency was “inactive”.
With `CC(C)(C)C(=O)NC(Nc1cccc2cccnc12)C(Cl)(Cl)Cl` (stereo not given) the Potency was inconclusive [activator, single point].
With `C/C(=N/OC(=O)c1cccc(C(F)(F)F)c1)c1cnccn1` the Potency was inconclusive [activator, full curve, poor fit].
For `CC(=O)C1=CCC(c2ccc(Cl)cc2)N(S(=O)(=O)c2ccc(C)cc2)C1` (stereo not given), the Potency was “inactive and active: 35.5 µM”.
With `O=C(Nc1ccc(F)c(F)c1)c1ccc(F)c(S(=O)(=O)N2CCC3(CC2)OCCO3)c1` the Potency was inconclusive [activator, partial curve].
With `CCN(Cc1ccccc1)S(=O)(=O)c1ccc(OC)cc1` the Potency was inconclusive [activator, single point].
In the case of `C/C(=N\NC(=O)c1ccncc1)c1cccc(NC(=O)c2ccc(Cl)s2)c1`, the Potency is reported as inconclusive [activator, single point].
In the case of `O=C(CN1CCN(S(=O)(=O)c2ccccc2)CC1)Nc1ccc(Cl)c(Cl)c1`, the Potency is reported as inconclusive [activator, single point].
In the case of `CC(=O)c1cc(-c2ccc(F)cc2)n(CCC(=O)NC2CCCCC2)c1C`, the Potency is reported as “inactive”.
In the case of `O=C(Nc1cccc([N+](=O)[O-])c1)N1CCCc2ccccc21`, the Potency is reported as active: 11.2 µM.
In the case of `COc1nc(Cl)cn(-c2ccc(Cl)cc2)c1=O`, the Potency is reported as inconclusive [activator, partial curve].
In the case of `Cc1ccc(-n2nc(CO)c(C(=O)NC(C)c3ccccc3)n2)cc1C` (stereo not given), the Potency is reported as “inactive”.
In the case of `CCCCOc1ccc(S(=O)(=O)NC(=O)C2(C)CCN2C(=O)Cc2ccccc2Cl)cc1` (stereo not given), the Potency is reported as inconclusive [activator, single point].
In the case of `CCCCCCc1c(O)c2ccccc2[nH]c1=O`, the Potency is reported as “inactive”.
For `CCOc1ccc(C2NC(=O)c3ccccc3O2)cc1` (stereo not given), the Potency was inconclusive [activator, partial curve].
In the case of `CCOC(=O)NC(=O)COC(=O)CCCSc1nc2ccccc2s1`, the Potency is reported as inconclusive [activator, partial curve].
